ChEMBL document CHEMBL4888484, “Replenishing the malaria drug discovery pipeline: Screening and hit evaluation of the MMV Hit Generation Library 1 (HGL1) against asexual blood stage Plasmodium falciparum ,using a nano luciferase reporter read-out” (2022)
Hit rate of the full screen: of about 150,000 compounds, about 540 (0.36%) showed an effect of 50% or more. The list shows a part of the results.

test system: Plasmodium falciparum; assay: Primary screen in NF54 nanoGlo assay, in single point, at 2uM, 72h; a lower Z score goes with more inhibition; format: functional, Erythrocyte; settings: timepoint 72 hour

Structure (SMILES) | % Inhibition | Z score
O=S(=O)(Cc1cc2c(cc1Br)OCCO2)c1cccc[n+]1[O-] | -5% | 0.74
Cc1cc(C(=O)NCc2cccnc2N2CCOCC2)sc1C | -9% | 1.75
C[C@]1(CNC(=O)c2cccc(-n3cncn3)n2)CCCCO1 | -21% | 2.61
N#Cc1ccc(N2CCCC(NC(=O)C3CCC(F)(F)C3)C2)c(F)c1 (stereo not given) | 12% | -1.63
Cc1onc(C(=O)NCCCc2nnc3ccccn23)c1CO | -4% | 0.82
O=C(Cn1c(=O)n(Cc2ccco2)c(=O)c2cc(Cl)ccc21)NC[C@H]1CCCO1 | 0% | 0.01
O=C(CCN(CCc1cccc(F)c1)C1CC1)N1CCCCC1 | -13% | 1.59
CCN(Cc1c(CO)cnc(C)c1O)c1ncnc2c1ncn2CC | -20% | 1.68
O=C(CN1CCOCC1)N1CCC[C@H](N(Cc2cccnc2)C(=O)C2CCC2)C1 | -3% | 0.48
Cc1ccc(-c2nccn2C[C@H]2CC(=O)N(C3CC3)C2)c(Cl)c1Cl | -2% | 0.41
Cc1ccc(N2C[C@@H](n3ccnc3-c3[nH]cnc3C)CC2=O)cc1 | 1% | -0.19
CN1CCN([C@H]2CCN(c3cccc(C#N)n3)C[C@H]2CCCO)CC1 | -14% | 1.33
O=S(=O)(c1ccc2c(c1)CCO2)N1CCC[C@H](c2nccs2)C1 | -6% | 0.73
Cc1ccc(C(=O)[C@@H](NC(=O)c2ccco2)N2CCOCC2)cc1 | 2% | -0.24
CCC(CC)c1cc(C(=O)NCCc2cn3c(n2)CCCC3)on1 | -3% | 0.32
Cc1nscc1C(=O)N1CCOc2cccc(F)c21 | 1% | -0.13
CCN1C[C@@H](CN(C)C(=O)Cc2ccc(F)cc2Cl)CC1=O | -18% | 2.05
Cn1cc(CN2CCN3C(=O)NC[C@H]3C2)c2ccccc21 | 14% | -1.63
Cc1noc(C)c1CNc1nccn1CC(C)C | 4% | -0.48
COCCn1nnnc1[C@]1(N2CCOCC2)CCCN(C(=O)c2cccc(OC)c2)C1 | 0% | -0.02
O=C(Cc1cccnc1)NCc1ccnc(N2CCCC2=O)c1 | 5% | -0.85
CCCCN1C(=O)c2cc(C(=O)N3CCN(c4ccc(F)cc4)CC3)nn2C[C@@]1(C)C(=O)NC1CCCC1 | 23% | -2.72

Structure (SMILES) | % Inhibition | Z score
COc1ccc(NC(=O)c2cnc(-n3nc(C)cc3C)nc2N)cc1 | 17% | -2.52
CCN(C(=O)c1cn(Cc2cccs2)nn1)[C@@H](C)c1ccncc1 | -1% | 0.12
Cc1ccc(CCC(=O)NCC2(CO)CCC2)c(C)c1 | -2% | 0.42
CC[C@H](C)NC(=O)NCCn1nnc2cc(S(=O)(=O)N(CC)CC)ccc21 | 31% | -3.53
Cc1cccc2nc(C3CCN(c4cccnc4C#N)CC3)oc12 | -10% | 1.12
COCCNC(=O)[C@@H]1COC2(CCN(C(=O)c3cccs3)CC2)N1C(=O)c1ccccc1 | 4% | -0.56
CN(Cc1ccccc1)Cn1nc(-c2ccccc2)oc1=S | -7% | 1.17
CCc1cc(C(=O)N2CCN(c3cccc(OC)c3)CC2)nc2cc(-c3ccccn3)nn12 | 1% | -0.13
CN(C)c1ncc2c(n1)CCN(Cc1ncc(Cl)s1)C2 | -9% | 1.88
c1cncc([C@@H]2c3nc[nH]c3CCN2Cc2ccccc2OCCn2ccnc2)c1 | -7% | 1.21
CCCN(C)C(=O)Cn1c(C)ccc(NS(=O)(=O)c2ccc(OC)cc2)c1=O | -13% | 1.73
COc1ccc(N2CCN(Cc3nc(C(=O)Nc4ccc(F)cc4)co3)CC2)cc1 | 6% | -0.58
CC(=O)N1CCC(CC(=O)NCc2ccccc2)(N2Cc3ccccc3C2=O)CC1 | -12% | 1.54
O=C(CCc1nc2ccccc2o1)Nc1ncc(Cc2ccccc2)s1 | -3% | 0.49
O=C(c1cc(CN2CCC(O)CC2)on1)N1CC[C@@H]2CCCC[C@H]2C1 | -14% | 1.37
O=C(O)[C@@H]1CC2(CCNCC2)CN1C(=O)c1ccccc1-c1ccccc1 | -5% | 0.85
CC(C)(C)CN(CCC#N)CC(=O)NC1CCCC1 | -8% | 1.1
O=C(NC[C@@H](c1ccco1)n1cccn1)Nc1ccccc1 | 11% | -1.45
CN(CCc1ccc(Cl)cc1)C(=O)c1cncnc1C1CC1 | 6% | -0.84
C#CCN(C)CCCNC(=O)c1cn2c(n1)CCCC2 | -4% | 0.63
c1cc(-c2noc(COc3nsnc3N3CCOCC3)n2)ccn1 | -6% | 0.85
Cc1nc(C(C)(C)C)sc1[C@H](C)NCC1(O)CCCCC1 | -2% | 0.46

Structure (SMILES) | % Inhibition | Z score
O=C(NCCCOCC1CC1)Nc1cccc(-c2nnco2)c1 | -20% | 2.04
O=C(c1cc2c(s1)CCCCC2)N1CC(CO)C1 | 27% | -3.05
Cc1ccc(CN2CCCn3nc(CNC(=O)C4CCC4)cc3C2)s1 | -9% | 1.78
Cc1[nH]ccc1C(=O)NC(c1ccc(Cl)cc1)C1CN(C)CCO1 (stereo not given) | -1% | 0.17
C[C@H](Oc1ccc(C(=O)NCc2ccccc2CN2CCN(C)CC2)cn1)c1ccccc1 | -10% | 1.4
Nc1ccc(Br)c(C2CC2)n1 | -16% | 2.14
Cc1ncccc1NC(=O)OC(C)(C)C | -4% | 0.55
CNS(=O)(=O)c1ccc(Cl)c(S(=O)(=O)NC)c1 | -11% | 1.47
COc1ccc(OC)c([C@@H](O)CNC(=O)Cc2c(C)nn(C)c2C)c1 | -18% | 3.31
CCCCC(=O)Nc1ccc2c(c1)nc(CN1CCCCCC1)n2C | -2% | 0.26
O=C(Cc1cccc(C(F)(F)F)c1)N1C[C@@H]2C[C@H]1C(=O)N2c1ccccc1Cl | -7% | 1.4
CC(C)n1ncc2c1C[C@@H](Nc1nc(C3CC3)ns1)CC2 | -8% | 1.41
C=C(C)CNC(=O)Nc1ccc(N(C)C)cn1 | -2% | 0.23
COC(=O)[C@H]1CN(c2nnnn2Cc2cccc3[nH]ccc23)C[C@@H]1C | -7% | 1.13
N#Cc1cnc(NCCCNc2cnc(C#N)cn2)cn1 | -6% | 0.66
Cc1nc(C)c(C(=O)NCC2(Cc3ccccc3)CCC2)o1 | 5% | -0.65
C[C@H]1CCC[C@@H](C(=O)OC(C)(C)C)N1C(=O)CCS(C)(=O)=O | -17% | 1.98
CCN(CC)c1ncc2c(n1)CC[C@H](C(=O)NCc1ccccc1)C2 | -4% | 0.78
O=C(c1cc(C2CC2)nc2ccccc12)N1CCN2C(=O)OC[C@H]2C1 | -10% | 1.98
N#Cc1cccc(NCCN2CCC[C@H](CO)C2)n1 | -11% | 2
CC1OCCN(C(=O)C2=CCCC2)C1C (stereo not given) | 4% | -0.54
C[C@H](NC(=O)C(=O)Nc1cccn(C)c1=O)C(C)(C)c1ccccc1 | -13% | 1.31

Structure (SMILES) | % Inhibition | Z score
O=C(Cc1ccccc1)N[C@@H]1c2ccccc2C2(CCNCC2)[C@H]1O | -4% | 0.62
Cc1noc(-c2c(NC(=O)COc3ccccc3F)sc3c2CCOC3)n1 | -6% | 0.95
COc1ccccc1-n1nc(CN(C)C(=O)CC2CCCC2)c2c1CCN(Cc1ccccc1F)C2 | -9% | 0.85
Nc1ncc(S(=O)(=O)NCc2ccc(Br)cc2)cn1 | -9% | 1.18
CN1C[C@@H](NCc2ccc(Cl)c(Cl)c2)CCC1=O | -15% | 2.81
COc1ccc([C@H]2CN(C(=O)c3ccc4ncccc4c3)C[C@@H]2N)cc1 | 1% | -0.21
Clc1ccc(-c2cc(-c3nc4ccccc4[nH]3)c(-c3ccccc3)nn2)cc1 | -8% | 1.67
Cc1ccc(C)c(S(=O)(=O)NCCCc2cnoc2)c1 | -4% | 0.62
CCn1nc(C)c(CN2C[C@@H]3CC[C@H]2CN(Cc2ccc(F)cc2)C3)c1C | 0% | -0.04
O=C1C[C@H](C(=O)N(Cc2ccco2)C2CC2)CN1Cc1cccc(C(F)(F)F)c1 | 7% | -0.95
Cc1nc(-c2cccc(C#N)c2)nn1C[C@H](O)c1cccc(Cl)c1 | -15% | 1.24
C[C@@H](c1ccccc1)N(C)CCCCS(=O)(=O)O | -2% | 0.4
O=C(NCc1cncn1C1CC1)N1CCC[C@H]1c1nc2ccccc2s1 | -17% | 2.96
CC(C)c1oncc1NC(=O)c1cccc(=O)[nH]1 | -13% | 1.75
CCOC(=O)c1nc(NCCc2ccc(Cl)cc2)c2c(-c3ccc(Cl)cc3)noc2n1 | 7% | -1.24
CCCCCC(=O)N[C@H]1C[C@@H](C)N(C(=O)Nc2cccc(Cl)c2)c2ccc(C)cc21 | -11% | 1.39
C[C@H](NC(=O)OCc1ccccc1)C(=O)N1CCOC(c2ccccc2)C1 (stereo not given in full) | -4% | 0.7
CCCc1noc(CN(C)C(=O)CNS(C)(=O)=O)n1 | -4% | 0.79
O=C(Cc1n[nH]c(=O)c2ccccc12)NCc1nnc2ccccn12 | -11% | 1.52
